The name of at least one read-out is uncertain.
What was measured:
[1] = system: spontaneous hypertensive rats (SHR); assay: Change in blood pressure of spontaneous hypertensive rats (SHR); format: in vivo; conditions: Table 5, 30 mg/kg oral, plethysmographic tail method, negative sign = drop
[2] = Effect on diastolic blood pressure (DBP) and systolic blood pressure (SBP); format: in vivo, mongrel dogs; conditions: dogs, 1 mg/kg, femoral vein, negative sign = drop

Row | Compound | SHR-BP (change in blood pressure) [1] [mmHg] | DBP (change in diastolic blood pressure) ([2]; Table 5) [mmHg] | SBP (change in systolic blood pressure) ([2]; Table 5) [mmHg] | DBP (change in diastolic blood pressure) ([2]; Table 7) [mmHg] | SBP (change in systolic blood pressure) ([2]; Table 7) [mmHg]
1 | Cc1cccc(OCC(O)CNCC2COc3ccccc3O2)c1 (centres unmarked) [Compound 1, 1-(3-methylphenoxy)-3-(1,4-benzodioxane-2-methaneamino)-2-propanol] | -28 | -40 |  |  | 
2 | CC(=O)Nc1ccc(OCC(O)CNCC2COc3ccccc3O2)cc1 (centres unmarked) [Compound 2, 1-(4-acetamidophenoxy)-3-(1,4-benzodioxane-2-methaneamino)-2-propanol] | -85 | -50 |  |  | 
3 | N#Cc1ccccc1OCC(O)CNCC1COc2ccccc2O1 (centres unmarked) [Compound 3, 1-(2-cyanophenoxy)-3-(1,4-benzodioxane-2-methaneamino)-2-propanol] | 0 | -65 | -34 |  | 
4 | CCCC(=O)Nc1ccc(OCC(O)CNCC2COc3ccccc3O2)c(C(C)=O)c1 (centres unmarked) [Compound 4, 1-(4-butyrylamido-2-acetyl)phenoxy-3-(1,4-benzodioxane-2-methaneamino)-2-propanol] | -73 | -55 | -49 |  | 
5 | CCOC(=O)Cc1ccc(OCC(O)CNCC2COc3ccccc3O2)cc1 (centres unmarked) [Compound 5, 1-(4-ethoxycarbonylmethyl)phenoxy-3-(1,4-benzodioxane-2-methaneamino)-2-propanol] | -60 | -50 | -40 |  | 
6 | Cc1cccc(OCC(O)CNCC2COc3ccccc3O2)c1C (centres unmarked) [Compound 6, 1-(2,3-dimethylphenoxy)-3-(1,4-benzodioxane-2-methaneamino)-2-propanol] | 0 | -28 | -32 |  | 
7 | OC(CNCC1COc2ccccc2O1)COc1cccc2ccccc12 (centres unmarked) [Compound 7, 1-(1-naphthyloxy)-3-(1,4-benzodioxane-2-methaneamino)-2-propanol] | 0 | -15 | -18 |  | 
8 | COc1ccc(C(O)C(C)NCC2COc3ccccc3O2)cc1C (centres unmarked) [Compound 8, 1-(3-methyl-4-methoxy)phenyl-2-(1,4-benzodioxane-2-methaneamino)propanol] | 0 | -17 | -18 |  | 
9 | Cc1c(C(O)CNCC2COc3ccccc3O2)oc2ccc(F)cc12 (centres unmarked) [Compound 9, 1-(5-fluoro-3-methyl-2-benzofuranyl)-2-(1,4-benzodioxane-2-methaneamino)ethanol] | -48 | -24 | -25 |  | 
10 | COC(=O)c1cc(C(O)CNCC2COc3ccccc3O2)ccc1O (centres unmarked) [Compound 10, 1-(3-methoxycarbonyl-4-hydroxy)phenyl-2-(1,4-benzodioxane-2-methaneamino)ethanol] | -52 | -5 | -6 |  | 
11 | CC(=O)Nc1ccc(OCC(O)CNCc2ccc3c(c2)OCCO3)cc1 (centres unmarked) [Compound 23, 1-(4-acetamidophenoxy)-3-(1,4-benzodioxane-6-methaneamino)-2-propanol] | 0 | -30 | -32 |  | 
12 | O=C1CCCc2c(OCC(O)CNCc3ccc4c(c3)OCCO4)cccc21 (centres unmarked) [Compound 24, 1-{3,4-dihydro-1(2H)-naphthalenon-5-yl}oxy-3-(1,4-benzodioxane-6-methaneamino)-2-propanol] | 0 | -45 | -15 |  | 
13 | NC(=O)Cc1ccc(OCC(O)CNCc2ccc3c(c2)OCCO3)cc1 (centres unmarked) [Compound 25, 1-(4-carbamoylmethylphenoxy)-3-(1,4-benzodioxane-6-methaneamino)-2-propano] | 0 | -33 | -15 |  | 
14 | CCOC(=O)Cc1ccc(OCC(O)CNCCN(Cc2ccccc2)C(C)COc2ccccc2)cc1 (stereo not drawn) [Compound 26, 1-(4-ethoxycarbonylmethylphenoxy)-3-{β-[N-benzyl-N-(1-methyl-2-phenoxyethyl)]aminoethyl}amino-2-propanol] |  |  |  | -16 | -22
15 | CC(=O)Nc1ccc(OCC(O)CNCCN(Cc2ccccc2)C(C)COc2ccccc2)cc1 (stereo not drawn) [Compound 27, 1-(4-acetamidophenoxy)-3-{β-[N-benzyl-N-(1-methyl-2-phenoxyethyl)]aminoethyl} amino-2-propanol] |  |  |  | -24 | -27
16 | CCCC(=O)Nc1ccc(OCC(O)CNCCN(Cc2ccccc2)C(C)COc2ccccc2)c(C(C)=O)c1 (stereo not drawn) [Compound 28, 1-(4-butyrylamido-2-acetylphenoxy)-3-{β-[N-benzyl-N-(1-methyl-2-phenoxyethyl)]aminoethyl} amino-2-propanol] |  |  |  | -17 | -18
17 | Cc1cccc(OCC(O)CNCCN(Cc2ccccc2)C(C)COc2ccccc2)c1 (stereo not drawn) [Compound 29, 1-(3-methylphenoxy)-3-{β-[N-benzyl-N-(1-methyl-2-phenoxyethyl)]aminoethyl} amino-2-propanol] |  |  |  | -18 | -14
18 | CC(COc1ccccc1)N(CCNCC(O)COc1ccc(CC(N)=O)cc1)Cc1ccccc1 (stereo not drawn) [Compound 30, 1-(4-carbamoylmethylphenoxy)-3-{β-[N-benzyl-N-(1-methyl-2-phenoxyethyl)]aminoethyl} amino-2-propanol] |  |  |  | -4 | -7

Source: patent US4450115A, “Amino-alcohol derivatives” (Kyowa Hakko Kogyo Co., Ltd., priority 1979, dated 1984)
